Assay results as given in the RNAGym collection of RNA variant scans (doi:10.1073/pnas.2313332121).
Variants at the background level are over-represented here.

B1: TPR 5TU (parent)
chain: GGAUCUUCUCGAUCUAACAAAAAAGACAAAUCUGCCACAAAGCUUGAGAGCAUCUUCGGAUGCAGAGGCGGCAGCCUUCGGUGGCGCGAUAGCGCCAACGUUCUCAACUAUGACACGCAAAACGCGUGCUCCGUUGAAUGGAGUUUAUCAUG

Variants of: B1
Experiment: polymerase ribozyme fitness, log enrichment relative to wild type (log ratio); higher = more active; in vitro selection for triplet polymerase activity
In short: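 For each subunit of a heterodimeric triplet polymerase ribozyme, a mutant library was built by PCR and transcribed, then taken through a single in vitro selection round in triplicate. Selection involved annealing to a biotinylated primer, the partner subunit and triplets, incubation frozen at −7 °C, gel excision of extended constructs, capture on streptavidin beads and RT-PCR. Genotypes were retained after Illumina sequencing of inputs and outputs only with ≥10 input reads and ≥1 read in each output. Fitness is defined as the logarithm of a genotype's enrichment relative to wild-type enrichment, using inverse-variance-weighted averages across replicates, with the logarithm taken to base 2.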

Variant | polymerase ribozyme fitness (log ratio)
C87U A89G | -3.41
C87U A97U | -2.25
C87U A113G G117A A138C | ≤ -4.2
C87U A120G A121C A147U U148C | -2.38
C87U A120U U135A C149U U151A | ≤ -4.2
C87U A121U | -0.38
C87U C95U U111G G117U U130A | ≤ -4.2
C87U C96G A113U | -2.85
C87U C103U | -0.658
C87U C114G | -2.79
C87U C116A | 1.21
C87U C118G | -1.33
C87U C132G | -3.72
C87U G88U A119U | ≤ -4.2
C87U G92C | -0.38
C87U U90C C99G | -3.53
C87U U90C U134A A138U G143A | ≤ -4.2
C87U U151G | -3.96
G88A A91G A119G | ≤ -4.2
G88A A97C C131A | ≤ -4.2
G88A A110G | ≤ -4.2

Variant | polymerase ribozyme fitness (log ratio)
G88A A110G A122U | -3.97
G88A A113G A115U | ≤ -4.2
G88A A113G U127G G143C | ≤ -4.2
G88A A120U C125G G126A G136U A142C | ≤ -4.2
G88A C95A | ≤ -4.2
G88A C95G | ≤ -4.2
G88A C103G A142C | ≤ -4.2
G88A C118U | ≤ -4.2
G88A G94A C99G C103G U104A A107G | ≤ -4.2
G88A G100A C125A C131G | ≤ -4.2
G88A G133C G141U | ≤ -4.2
G88A G136A | -3.83
G88A G140A | ≤ -4.2
G88A G140U | ≤ -4.2
G88A G152A | ≤ -4.2
G88A U90C A137G | ≤ -4.2
G88C A91U A110U | ≤ -4.2
G88C A110U | ≤ -4.2
G88C A115G A122C U127G | ≤ -4.2
G88C A115U G117U C131G U135G | ≤ -4.2
G88C A137C | ≤ -4.2

Variant | polymerase ribozyme fitness (log ratio)
G88C A147C G152U | ≤ -4.2
G88C G126U U144C | ≤ -4.2
G88C U148G | ≤ -4.2
G88U A91G | ≤ -4.2
G88U C99A | -4.1
G88U C105U U134G | ≤ -4.2
G88U C125U A137C | ≤ -4.2
G88U U111G C123U | ≤ -4.2
A89C A97U U101G A110G U134G G141A | ≤ -4.2
A89C C93A C99U | ≤ -4.2
A89C C125A | -1.13
A89C G94C | -1.57
A89C G140C | ≤ -4.2
A89C U130A | -3.07
A89G A97G C103A U127C U139G | ≤ -4.2
A89G C93A U102A A121U C131G G143A | ≤ -4.2
A89G C105A A106G C132U A142U | ≤ -4.2
A89G C131A | -2.5
A89G G92U | -2.48
A89G G92U C125U U146C | -1.03
A89G G94A G100C | ≤ -4.2

Variant | polymerase ribozyme fitness (log ratio)
A89G U101C C118G A121U A137C U148C | ≤ -4.2
A89G U146G C149G | -4.1
A89U A91U | ≤ -4.2
A89U A91U G136C U139A A142U G152A | ≤ -4.2
A89U A137C U151G | ≤ -4.2
A89U C93G | -3.68
A89U C95G A122G | -1.39
A89U C123U | 0.89
A89U G143U | -2.38
A89U U102G A122C | -3.7
A89U U127C G136C A137C | -4.13
U90A G92A C103G G117U A138G | ≤ -4.2
U90A G92C A142G | ≤ -4.2
U90C C99G U101G C118A | ≤ -4.2
U90C C99U | ≤ -4.2
U90C G94U G124A C125U | -4
U90C G143A | ≤ -4.2
U90G A120C U139C | ≤ -4.2
U90G G92C U139G | ≤ -4.2
U90G G100A C116U | ≤ -4.2
U90G G124C | ≤ -4.2
